This passage reports GI50 and TGI results from PubChem BioAssay (NCI).

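A five-concentration, 48-hour dose response in 96-well plates underlies each endpoint, interpolated linearly between surrounding concentrations. At the GI50, growth is halved. TGI: concentration producing complete growth inhibition.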

For the assay, the system named is NCI-H322M lung. As to the kind of experiment: growth of human tumour cells (NCI), 48 h.

With `CCCCCc1ccc(S(=O)(=O)Nc2cc(-c3csc(NC(=O)CN4CCN(C)CC4)n3)ccc2N2CCN(C)CC2)cc1`, the GI50 is 1.22 µM and the TGI worked out at 3.47 µM.
Regarding `CCN1CCN(S(=O)(=O)c2oc(-c3ccc(Cl)cc3)nc2C#N)CC1`, the GI50 was 16.8 µM and the TGI is 30.9 µM.
